The other results are listed elsewhere or left out.
Each sequence was assayed on PfAP2-HC AP2 domain (GST-tagged) (assay: gcPBM binding intensity (ln(normalized median fluorescence intensity)); higher = stronger DNA binding).
Outline: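 In this array assay, P. falciparum DNA-binding domains with a GST tag, expressed in E. coli, were applied for 1 h to primer-extended double-stranded 36-bp intergenic genomic probes and negative controls on an Agilent 4 × 180k array. Bound protein was visualised with Alexa488 anti-GST antibody at 488 nm. Binding intensity is the highest Masliner-normalised natural-log median intensity across replicate spots of either probe orientation.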

| Sequence | gcPBM binding intensity (ln) |
| --- | --- |
| GAACCTTTAAAATACACACCCAAATCCTTTGAAATA [CACACA_site3630] | 9.76 |
| ATATTTTACAAATGCACACATAATTTTTTTTTTTTT [CACACA_site2763] | 9.77 |
| ATATAAAAAATATAAGGTACACATATATGTAGATAT [XGTACX_site6792] | 9.97 |
| TAAATAAAATACAAATGTACATAAATAATAAATATA [XGTACX_site1813] | 9.81 |
| AATTATTTTAAATATTGTACTATTACAGAATGGTGT [XGTACX_site5693] | 9.62 |
| AGCAGACACCAACACACACACATATATATATATATA [CACACA_site337] | 10.5 |
| TATATATTAATCAAAGTGCAATAATAAAATAAAAGT [GTGCAC_site9490] | 9.87 |
| TAACTTTATTTTCCTGTACACACATTTGACATATTA [CACACA_site9116] | 9.97 |
| TCAAATTACGTAAGAACATGCGATATAAGAAATACG [TGCATGCA_site691] | 9.7 |
| CTCTAATTAATATTTGTACACACATATTTAACCTAC [CACACA_site9043] | 9.96 |
| TTTATACAAAAGAACAGTACAATAAAGGATTTATGA [XGTACX_site811] | 9.57 |
| TAAATTTGTGTTATTAAAAAAATGGTTTAAAAATGT [XGTACX_negctrl_site352] | 9.51 |
| TCTTTTTCATCTTTCAACAAAAAATAATATATGTGT [CACACA_negctrl_site866] | 9.73 |
| AGAATAAATATGCACACATGCATATATTTTTACACT [TGCATGCA_site893] | 9.93 |
| TTAGTCCATATTTTTGCACACCATTTTTTTTTTTTT [CACACA_site3927] | 10.2 |
| ATCCTTAATATGAACACACAAATATATTGCACATAT [CACACA_site6230] | 9.98 |
| AAATATACAATATTCACACAAAAAAATACATTACAA [CACACA_site5004] | 9.74 |
| ATATATTTATATTGTACACACATTTATGCATATATA [CACACA_site7502] | 9.96 |
| TTTCTTACAAAAGCTAGAGTTTTTTTTTTTTTTTTT [XGTACX_negctrl_site341] | 9.39 |

| Sequence | gcPBM binding intensity (ln) |
| --- | --- |
| TGTTTTTATAAAATAAATAAATATATATATATATAT [CACACA_negctrl_site502] | 9.34 |
| TTTATTATTTTAACGTGTACAAGGTATATAATATTC [XGTACX_site5241] | 9.59 |
| TAGGTAAATGCAAATTGGTTTAAATCAAAATATAAA [XGTACX_negctrl_site250] | 9.55 |
| GTATCAAAAGAATACACACACACATACAGATATATA [CACACA_site5975] | 11.2 |
| TGATATTATATATATACACACATGTATGTATTTATA [CACACA_site4874] | 9.95 |
| AAAAATAAAAAATATAAAAATATAAAAATATAAAAA [XGTACX_negctrl_site51] | 9.55 |
| TTATATTTTCTCCGCGTGCACATATGTATACTATAC | 9.94 |
| TTTTTGTTTTTTTGTTTATCGTTCGTGACTACATGA [TGCATGCA_negctrl_site124] | 9.49 |
| GAAATCTAAATAGAAACACACATATATATATATATA [CACACA_site3863] | 9.53 |
| TAGGGTAGTTATAATTGTACTTTTCTCCAAAAAAAA [XGTACX_site7321] | 9.36 |
| TAGGTACATAAATTGGTGCAAAGTGTACATATATAT | 9.91 |
| AAAATACATAAACGTTCACACATTGAAGATCACAAG [CACACA_site5347] | 9.86 |
| AATTTTAATTATATCACACATAATATATACCAAAAA [CACACA_site6011] | 9.66 |
| TTTAATACTTTTTTCTGTACACACTTGATTTACTAT [XGTACX_site5925] | 10 |
| TACATATTTTTATATACACACAATAATTACTATAAA [CACACA_site6879] | 9.66 |
| CAAAATATAAAAACATGTACATAAATATTAACGAAT [XGTACX_site2380] | 9.96 |
| TCATCCACATATTGTAGTACAAGATAATTGTTTATT [XGTACX_site1634] | 9.63 |
| ATATGTTTATTAAATGCATGTCAAGACTTAAGATAT [TGCATGCA_site329] | 9.51 |
| AACATATACACGAACACACACACATATAAATAAATA [CACACA_site6380] | 10.4 |

| Sequence | gcPBM binding intensity (ln) |
| --- | --- |
| AAAAATACAATTTTCTTGCACTTTGTTGCATTGTAA | 9.66 |
| TCATATATAAAAAGGGTGCTTTTAAAAGAATGGATT | 9.71 |
| CAAAAAATGAAACACACACACACACCCATAAATAAA [CACACA_site1231] | 10.8 |
| CAGATATTTGTTCATATACACACTTTTGATAAAATA [CACACA_site1219] | 9.64 |
| AATATTTTTTGTTTTACACACATATATAGATATATA [CACACA_site7662] | 9.82 |
| TTTTTTGGGTAAAATTATAAAATATGTATATATAAA [CACACA_negctrl_site27] | 9.24 |
| TTTTTTTTTGTATTTTCACACATTTTTTTTTTTTTT [CACACA_site5407] | 9.82 |
| TTATTTAAACAAATCACACACAAATATATATACATA [CACACA_site2019] | 10 |
| ATATGCATAAAAAGAGGTACACATAAAATATATATA [XGTACX_site5864] | 9.89 |
| TATACACATATATAAAGTACATATATGTGTAAAAAA [XGTACX_site8582] | 9.88 |
| TCTTCCGCTTTATGGAGTACTATGGTAGCCTTTCCT [XGTACX_site2958] | 9.52 |
| GACCTACAAAAAGGCACACATATACGCATACATACA [CACACA_site2179] | 9.82 |
| CATATTTTCAAAATTAGTACATAAAAAAAAAAATAT [XGTACX_site3101] | 9.58 |
| TATAATCATATATACACACACATATATATATATATA [CACACA_site2168] | 10.1 |
| AATATAAATAATATATGTACATATATATATATATAT [XGTACX_site1021] | 9.67 |
| AAAGTATTCTTTACACGTACATATATATAAATATAA [XGTACX_site7557] | 9.59 |
| AGAATTGTTGTTAAAGAATTCTTTTTTATCCTTCCC [CACACA_negctrl_site1820] | 9.39 |
| TTTGTATATATTAATGTACACACATGCGTATGTTCG [CACACA_site9193] | 9.88 |
| AATATAGATATAAAAAGTACATTATATATATATATA [XGTACX_site6899] | 10 |

Reference: the supplement of paper PMC11417369
